Source: PubChem BioAssay AID1346428 (National Center for Advancing Translational Sciences (NCATS), 2018)
Hit rate of the full screen: of about 48,000 compounds, about 1,200 (2.5%) were called active. Another 2% or so got no clear call; they are omitted.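 The calls were made as follows: active = activation of at least 60% and not above a set upper limit (about 1 call in 100 departs from these limits); inconclusive = activation of 40% to 60%, or above that upper limit; inactive = activation under 40%.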 The list shows a part of the results.

Target: Probable G-protein coupled receptor 32 (Homo sapiens) (UniProt O75388)
Experiment: qHTS for Agonists of Human Resolvin D1 Receptor DRV1; also: 0% is about no effect
Details: CHO-K1 GPR32 beta-arrestin PathHunter luminescence, 90 min; at 76.9 µM; active compounds read high; zero percent set by DMSO-only wells
Procedure, shortened: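 PathHunter enzyme-fragment complementation, CHO-K1 GPR32 stable line; 2,500 cells/well, overnight attach; cpd 90 min 37 °C 5% CO2; detection reagent 1 h RT; chemiluminescence. DMSO = EC0.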

Chain of UniProt O75388 (O75388 whole entry, looked up): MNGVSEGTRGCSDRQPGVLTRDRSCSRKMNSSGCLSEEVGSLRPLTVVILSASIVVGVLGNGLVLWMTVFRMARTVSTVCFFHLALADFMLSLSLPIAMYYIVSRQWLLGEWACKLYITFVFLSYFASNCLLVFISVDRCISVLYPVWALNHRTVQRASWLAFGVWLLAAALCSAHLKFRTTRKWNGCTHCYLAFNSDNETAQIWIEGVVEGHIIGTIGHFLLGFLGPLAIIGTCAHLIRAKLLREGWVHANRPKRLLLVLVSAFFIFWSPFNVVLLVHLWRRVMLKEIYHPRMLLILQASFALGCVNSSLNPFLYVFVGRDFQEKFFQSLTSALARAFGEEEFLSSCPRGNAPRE

activation, inactive:
COc1ccc(OC)c(NC(=O)CCNS(=O)(=O)c2ccc3c(c2)oc(=O)n3C)c1 -7.84%
COc1ccc(CCNC(=O)Cc2c(C)c3cc4c(C)coc4cc3oc2=O)cc1OC -9.3%
Cc1ccc(-n2c(=O)c3c(C)c(C)sc3n(Cc3ccc(F)cc3Cl)c2=O)cc1C -5.33%
CCOc1ccc(C2C(=O)N(C3CCCCC3)CC(=O)N2CCc2ccccc2)cc1OC (stereo not drawn) -21.1%
Oc1ccc(-c2nc3ccc(Cl)cn3c2Nc2ccc3c(c2)OCO3)cc1 -9.02%
CC(=O)c1ccc(NC(=O)Cn2ncc3c4ccccc4n(Cc4ccccc4)c3c2=O)cc1 -12.3%
COc1cc(C(=O)NCc2nc3cccnc3n2Cc2ccc(C)cc2)cc(OC)c1OC -13.6%
Cc1cc(C)c(NS(=O)(=O)c2ccc(-c3coc(C)n3)cc2)c(C)c1 11.5%
O=C1CC(=O)Nc2cc(S(=O)(=O)N3CCOc4ccc(Cl)cc43)ccc2N1 -10.7%
O=C(NCc1ccc(Cl)cc1)C1CCN(S(=O)(=O)c2ccccc2)CC1 -7.54%
COc1ccc(N(C(=O)c2ccccc2)S(=O)(=O)c2ccc3c(c2)n(C)c(=O)n3C)cc1 -12.1%
COc1ccccc1CNC(=O)CCn1cnc2ccccc2c1=O 0.868%
O=C(NC1CC(=O)N(c2ccc(F)cc2)C1)c1ccc2c(c1)OCO2 (stereo not drawn) -5.18%
O=C(c1ccc2c(c1)N(Cc1cccc(Cl)c1)C(=O)c1ccccc1S2=O)N1CCN(c2cccc(C(F)(F)F)c2)CC1 (stereo not drawn) -25.1%
Cc1cccc(Cn2nnc3c(=O)[nH]c(C4CCCN(C(=O)c5ccccc5Cl)C4)nc32)c1 (stereo not drawn) 11.4%
O=C(Cn1c(=O)n2nc(-c3cccc(F)c3)nc2c2ccccc21)N1CCN(c2ccc(F)cc2)CC1 6.94%
Cn1c(=O)c2c(ncn2Cc2ccc(Cl)cc2)n(C)c1=O 22.5%
CCN1CCN(C(c2ccccc2Cl)c2c(O)cc(C)n(Cc3ccco3)c2=O)CC1 (stereo not drawn) -12%
N#Cc1nc(/C=C/c2ccc(F)cc2)oc1NCc1ccc(F)cc1 13.7%
COc1ccc(N2CCN(C(=O)CNS(=O)(=O)c3ccc(Br)s3)CC2)cc1 13.1%
CC(NC(=O)c1ccc(F)cc1)c1nc2ccccc2[nH]1 (stereo not drawn) 2.57%
CCc1ccc(NC(=O)Cn2c(=O)n(-c3cc(OC)c(OC)c(OC)c3)c(=O)c3ccccc32)cc1 -9.12%
Cc1cc(C(=O)C(=O)Nc2nncs2)c(C)n1-c1ccc(Cl)cc1 5.82%
